Reference: ChEMBL document CHEMBL4888484, “Replenishing the malaria drug discovery pipeline: Screening and hit evaluation of the MMV Hit Generation Library 1 (HGL1) against asexual blood stage Plasmodium falciparum ,using a nano luciferase reporter read-out” (2022)
Hit rate of the full screen: of about 150,000 compounds, about 540 (0.36%) showed an effect of 50% or more. The list shows a part of the results.

System: Plasmodium falciparum
Assay: Primary screen in NF54 nanoGlo assay, in single point, at 2uM, 72h; a lower Z score goes with more inhibition
Assay type: functional, Erythrocyte
Details: timepoint 72 hour

SMILES | % Inhibition | Z score
COc1ccccc1NC(=O)N[C@H]1CC(=O)N(CC(C)(C)C)C1 | -24% | 2.09
O=C(O)c1coc(C(=O)N2CC3(CCC3)c3ccccc32)c1 | -7% | 1.3
COCCn1nc(C)c(NC(=O)N2CCC[C@H](c3cc(F)ccc3F)C2)c1C | -3% | 0.38
Cc1nc2cc(N3CCC[C@H](C(=O)NCc4cccs4)C3)cnc2nc1C | -5% | 0.93
Cc1nnc(CCC(=O)N2CCCCC2)o1 | 0% | 0.02
COc1ccc(-c2nc(-c3ccc(OCc4ccc(F)c(F)c4)c(OC)c3)no2)c(OC)c1 | -4% | 0.61
CCOC1CN(C(=O)NC[C@H]2CCCn3ccnc32)C1 | -7% | 0.69
Cc1cc(NC(=O)NCCc2ccsc2)no1 | 3% | -0.51
COc1cc(N2CCC3(CC2)CC(=O)N(Cc2ccc(F)c(F)c2)C3)ncn1 | 2% | -0.36
CNc1ccnc(-c2cccc3c2OC(F)(F)O3)n1 | 1% | -0.19
Cc1ccc(-n2nnnc2N2CCc3ccccc3C2)cc1 | -14% | 1.86
CCCOCCN1CCN(C[C@@H]2CCCN3CCCC[C@H]23)CC1 | -18% | 2.28
O=C(NC1CCCCCCC1)C1CCC(C(F)(F)F)NC1=O (stereo unspecified) | -10% | 1.35
CCc1nc(CN2CCc3cc(OC)c(OC)cc3[C@@H]2c2cccnc2)n[nH]1 | -6% | 1.21
COc1ncnc(C)c1-c1ccc(C(=O)N2CCS(=O)(=O)CC2)cc1 | 3% | -0.37
CCc1[nH]nc(NS(=O)(=O)c2sc(C)nc2C)c1C | 0% | 0.02
O=C(NCCCc1nc2c(s1)CCCC2)c1cscn1 | 9% | -1.32
CN(Cc1ncc[nH]1)Cc1cc2cc3c(cc2nc1-c1ccc(Cl)cc1)OCO3 | -20% | 2.86
CCc1nnc(CNC(=O)[C@H]2CCC(=O)N(C3CCCC3)C2)s1 | 8% | -1.11
COc1ccc(NC2(C(=O)NCCc3nc(C)cc(=O)[nH]3)CCCCC2)cc1 | -1% | 0.2
COc1cccc(C2=CCN(S(=O)(=O)c3ccc4c(c3)NC(=O)CO4)C2)c1 | -32% | 3.25
CC(C)c1ccc(-c2noc(CCC(=O)Nc3ncccc3O)n2)cc1 | -6% | 0.77

SMILES | % Inhibition | Z score
Cc1cc(NC(=O)c2ccno2)n(-c2nc3c(F)cccc3s2)n1 | 17% | -2.24
CC(C)(C)CCOc1cnccc1CNC(=O)N1CCOc2ccc(O)cc2C1 | -10% | 1.6
Cc1nc(C)c(C(=O)N[C@H]2CCN(c3ccc(=O)n(CCOc4ccccc4)n3)C2)s1 | -12% | 2.2
COc1cccc(NC(=O)N[C@H]2CCN(c3ccc(F)cc3)C2=O)c1 | -2% | 0.34
COc1ccccc1CNC(=O)[C@]1(C)Cn2nc(-c3ccccc3)cc2C(=O)N1c1cc(C)cc(C)c1 | 10% | -1.51
CCOCCN[C@@H](C(N)=O)c1ccc(Br)cc1F | 0% | -0.06
Clc1cccc2sc(OC3CCNCC3)nc12 | 21% | -2.68
O=C(Nc1ccc(C(F)(F)F)cc1)N1CCCS(=O)(=O)CC1 | -4% | 0.55
CC[C@H](C)Cc1nc(C2(COCc3ccccc3)COC2)no1 | -8% | 1.22
COc1cc(Cl)c(C)cc1NC(=O)CNC(=O)Cn1c(C)cc2ccccc2c1=O | -6% | 0.99
Cn1nnc2ccc(NC(=O)Cc3ccc4c(c3)OCC4)cc2c1=O | 9% | -1.06
O=C1NCCOCCCN(C(=O)NCCc2ccccc2)[C@H]2CCC[C@@H]12 | -14% | 2.01
CCc1nc2ccccc2n1[C@@H](CC)C(=O)NCCN(C)S(C)(=O)=O | 19% | -2.39
CC1CN(C(=O)c2cccc(-n3cncn3)c2)CC(C)N1 (stereo unspecified) | -3% | 0.37
O=C(NC1CC1)c1cc(-c2ccc(F)cc2)c[nH]1 | -13% | 1.86
CCc1ncnc(N2CCOC[C@H]2c2noc(C(C)C)n2)c1F | -7% | 0.85
CC1(C)C[C@@H](N2N=C(C3(C)CC3)CC2=O)CCO1 | -6% | 0.76
CC(=O)N1CCC(CCNC(=O)NC2CCC(C(C)C)CC2)CC1 (stereo unspecified) | 34% | -3.8
COc1ccc(Oc2nc(-c3ccc(OC)cc3)ncc2C(=O)NC[C@H]2CCCO2)cc1 | -5% | 1.02
COc1ccc(C(=O)Nc2nc3n(n2)[C@H](c2ccccc2Cl)C=C(c2ccc(C)cc2)N3)cc1 | -3% | 0.48
N#CCCN(C(=O)c1cc(-c2ccc(Br)cc2)nc2ccccc12)c1ccccc1 | -5% | 0.84
